The inconclusive results got no clear call from the source; some entries with a clear call stand among them for comparison. Potencies of inconclusive entries are doubtful fits and often do not repeat. The source made the active and inactive calls. Calls come from the whole dose curve; as a rule, active = well fitted curve in the direction sought with a large enough effect; inconclusive = small, poorly fitted or top-dose-only effect, or another doubt; inactive = no such curve, though single readings can be large; an effect the other way counts as inactive or inconclusive.
Columns and labels:
[1] = P-glycoprotein substrates identified in KB-8-5-11 adenocarcinoma cell line, qHTS therapeutic library screen (AID 1346987); note: nearly all actives have a fitted effect of over 65% in size
Outline: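 P-gp-mediated resistance screen: KB-8-5-11 cells treated 72 h with compounds in dose-response. CellTiter-Glo viability.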

[2] = Primary qHTS for inhibitors of nuclear receptor binding SET domain protein 2 (NSD2) in an isogenic RCH-ACV NSD2 p.E1099K mutant (9B) (AID 1645876); note: nearly all actives have a fitted effect of over 70% in size
[3] = Primary qHTS for inhibitors of nuclear receptor binding SET domain protein 2 (NSD2) in an RCH-ACV wild type WT cells (2C) (AID 1645877); settings: activity change, negative = cell killing: at 44.9 µM (top of the series); note: nearly all actives have a fitted effect of over 70% in size
[4] = system: CRL-7250; assay: Cytotoxic Profiling of Annotated Libraries Using Quantitative High-Throughput Screening (AID 1296008); settings: Five cell lines viability, CellTiter-Glo ATP luminescence, 48-72 h; max response: stronger effect = lower value; note: nearly all actives have a fitted effect of over 60% in size; for max response: % is set by controls: 0 for no effect and ±100 for the full control effect
Outline: (§1)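 Cells exposed to compounds for 48 or 72 hr at 37 degrees Celsius. Viability read as ATP-coupled luminescence with CellTiter-Glo after 10 min at room temperature.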

[5] = system: HEK293; assay: as above; settings: Five cell lines viability, CellTiter-Glo ATP luminescence, 48-72 h; max response: stronger effect = lower value
Outline: as §1

[6] = system: KB-3-1; assay: as above; settings: Five cell lines viability, CellTiter-Glo ATP luminescence, 48-72 h; max response: stronger effect = lower value
Outline: as §1

[7] = system: CAOV3; assay: Primary qHTS to identify gynecologic anti-cancer compounds using libraries of approved drugs and bioactive compounds (AID 1345084); settings: Gynecologic cancer cell panel viability, ATPlite luminescence, 48 h; series mostly up to 57.5 µM; note: nearly all actives have a fitted effect of over 55% in size; for activity change, negative = cytotoxicity: % is set by controls: 0 for no effect and ±100 for the full control effect
Outline: (§2)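 Cell viability after 48 h drug treatment, ATPlite luminescence readout; five doses.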

[8] = system: SKOV3; assay: as above; settings: Gynecologic cancer cell panel viability, ATPlite luminescence, 48 h; series mostly up to 57.5 µM
Outline: as §2

[9] = system: Tov112D; assay: as above; settings: Gynecologic cancer cell panel viability, ATPlite luminescence, 48 h; activity change, negative = cytotoxicity: at 57.5 µM (top of the series)
Outline: as §2

[10] = Primary fluorescence-based thiol-reactive (MSTI) qHTS assay for identification of artifact compounds. (AID 1845221);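 note: thiol-reactive compounds lower the probe fluorescence signal; nearly all actives have a fitted effect of over 65% in size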
Outline: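 Probe: MSTI 4 uM, PBS pH 7.4, 2% DMSO. Incubation 1 h, RT, light-protected. Readout fluorescence 525/598 nm.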

[11] = system: Hek293T; assay: Primary qHTS to identify gynecologic anti-cancer compounds using libraries of approved drugs and bioactive compounds (AID 1345084); settings: Gynecologic cancer cell panel viability, ATPlite luminescence, 48 h, control line for the selectivity index; series mostly up to 57.5 µM; note: nearly all actives have a fitted effect of over 55% in size; for activity change, negative = cytotoxicity: % is set by controls: 0 for no effect and ±100 for the full control effect
Outline: as §2

[12] = system: Zika virus NS2B-NS3 protease (unlinked complex); assay: Primary screen GU Rhodamine qHTS for Zika virus inhibitors: Unlinked NS2B-NS3 protease assay (AID 1347159); note: nearly all actives have a fitted effect of over 60% in size
Outline: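 A qHTS format was used, with compound concentrations ranging up to 114 microM. Each compound was preincubated with 25 nM NS2B-NS3 protease, and the substrate was then added at 1.5 microM. Curves were fitted with a 4-parameter Hill model.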

[13] = system: C33A; assay: Primary qHTS to identify gynecologic anti-cancer compounds using libraries of approved drugs and bioactive compounds (AID 1345084); settings: Gynecologic cancer cell panel viability, ATPlite luminescence, 48 h; series mostly up to 57.5 µM; note: nearly all actives have a fitted effect of over 55% in size; for activity change, negative = cytotoxicity: % is set by controls: 0 for no effect and ±100 for the full control effect
Outline: as §2

[14] = system: PA-1; assay: as above; settings: Gynecologic cancer cell panel viability, ATPlite luminescence, 48 h; series mostly up to 57.5 µM
Outline: as §2

[15] = system: Tov-21-G; assay: as above; settings: Gynecologic cancer cell panel viability, ATPlite luminescence, 48 h; activity change, negative = cytotoxicity: at 57.5 µM (top of the series)
Outline: as §2

[16] = system: Es-2; assay: as above; settings: Gynecologic cancer cell panel viability, ATPlite luminescence, 48 h; series mostly up to 57.5 µM
Outline: as §2

[17] = system: OV90; assay: as above; settings: Gynecologic cancer cell panel viability, ATPlite luminescence, 48 h; series mostly up to 57.5 µM
Outline: as §2

[18] = system: JEG-3; assay: as above; settings: Gynecologic cancer cell panel viability, ATPlite luminescence, 48 h; series mostly up to 57.5 µM
Outline: as §2
Potency is the fitted concentration of half-maximal effect; tags give direction and shape of the fitted curve.

Cc1nc(Nc2ccc(F)cc2)nc(N2CCc3ccccc3C2C)c1C (stereo not given)
inactive: max response [4] -9.52% | Potency [8] | Potency [9]
inconclusive: Potency [1] 14.6 µM [inhibitor, partial curve] | Potency [2] 29 µM [inhibitor, single point] | Potency [3] 18.3 µM [inhibitor, single point] | Potency [5] 29.1 µM [inhibitor, single point] | Potency [6] 18.4 µM [inhibitor, partial curve, poor fit] | Potency [7] 5.62 µM [rising, partial curve, poor fit]

O=C(NCCN1CCN(c2cccc3ccc(O)cc23)CC1)c1ccc(F)cc1
inactive: Potency [11]
inconclusive: Potency [2] 20.5 µM [inhibitor, single point] | Potency [3] 20.5 µM [inhibitor, single point] | Potency [10] 3.36 µM [inhibitor, full curve] | Potency [4] 29.1 µM [inhibitor, single point] | Potency [5] 18.4 µM [inhibitor, single point] | Potency [6] 23.1 µM [inhibitor, single point]

C=CC(=O)Nc1cc(-n2c(=O)ccc3cnc4ccc(-c5ccc(NS(C)(=O)=O)cc5)cc4c32)ccc1C
inactive: Potency [10]
inconclusive: Potency [12] 17.8 µM [inhibitor, full curve, poor fit] | Potency [4] 18.4 µM [inhibitor, partial curve, poor fit] | Potency [5] 25.9 µM [inhibitor, single point] | Potency [6] 20.6 µM [inhibitor, single point] | Potency [13] 12.6 µM [cytotoxic, partial curve, poor fit] | Potency [14] 39.8 µM [cytotoxic, single point] | Potency [8] 1.26 µM [rising, full curve, poor fit] | Potency [15] 39.8 µM [cytotoxic, single point]

CNC1CN(c2ccc3c(=O)c(C(=O)O)cn(-c4nccs4)c3n2)CC1OC (stereo not given)
inconclusive: Potency [1] 1.68 µM [inhibitor, partial curve] | Potency [4] 5.31 µM [inhibitor, single point] | Potency [6] 2.66 µM [inhibitor, partial curve] | Potency [13] 3.55 µM [cytotoxic, partial curve, poor fit] | Potency [16] 3.16 µM [cytotoxic, partial curve] | Potency [11] 3.16 µM [cytotoxic, partial curve] | Potency [8] 3.55 µM [cytotoxic, partial curve, poor fit] | Potency [15] 1.41 µM [cytotoxic, full curve] | Potency [9] 1.78 µM [cytotoxic, partial curve]
active: Potency [5] 1.06 µM

CC(C)(C[C@@](O)(Cc1cc2ccncc2[nH]1)C(F)(F)F)c1cc(F)ccc1O
active: Potency [3] 0.163 µM | Potency [5] 11.6 µM
inconclusive: Potency [1] 29.1 µM [inhibitor, single point] | Potency [4] 23.1 µM [inhibitor, single point] | Potency [6] 25.9 µM [inhibitor, single point] | Potency [7] 39.8 µM [cytotoxic, partial curve, poor fit] | Potency [11] 28.2 µM [cytotoxic, partial curve, poor fit] | Potency [8] 3.55 µM [rising, single point]

COc1ccc(N(C(=O)Nc2c(C)cccc2C)c2cc(Nc3ccc(N4CCN(C)CC4)cc3)ncn2)c(OC)c1
active: Potency [2] 10.3 µM | Potency [4] 2.91 µM | Potency [5] 14.6 µM | Potency [8] 25.1 µM | Potency [15] 12.6 µM
inconclusive: Potency [1] 18.4 µM [inhibitor, single point] | Potency [3] 20.5 µM [inhibitor, partial curve] | Potency [10] 1.06 µM [inhibitor, full curve] | Potency [6] 29.1 µM [inhibitor, single point] | Potency [7] 20 µM [cytotoxic, partial curve, poor fit] | Potency [11] 39.8 µM [cytotoxic, single point] | Potency [17] 14.1 µM [cytotoxic, partial curve] | Potency [14] 39.8 µM [cytotoxic, single point]

COC1CC(O[C@H]2CC[C@]3(C)C4CC[C@]5(C)C(C6=CC(=O)OC6)=CCC56OC46CC[C@@H]3C2)OC(C)C1O[C@@H]1O[C@H](CO[C@@H]2O[C@H](CO)[C@@H](O)[C@H](O)[C@H]2O)[C@@H](O)[C@H](O)[C@H]1O (stereo not given in full)
active: Potency [1] 3.1 µM | Potency [3] 2.75 µM | Potency [4] 1.55 µM | Potency [5] 1.74 µM | Potency [13] 2.82 µM | Potency [16] 3.16 µM | Potency [11] 2.82 µM | Potency [8] 3.16 µM | Potency [15] 2.24 µM | Potency [9] 2 µM
inconclusive: Potency [6] 6.93 µM [inhibitor, single point] | Potency [7] 4.47 µM [cytotoxic, partial curve, poor fit] | Potency [18] 11.2 µM [cytotoxic, single point] | Potency [17] 10 µM [cytotoxic, single point]
